Results reported in article PMC4336329 (PLoS ONE, 2015).
Among all 310,000 compounds or so, about 2,200 (0.71%) showed an effect of 50% or more. Effects have a minus sign here. Some of the results follow.

Target: human ether-à-go-go-related gene (hERG) potassium channel (human, UniProt Q12809)
Assay: primary screen, population patch clamp on CHO cells stably expressing hERG

Chain of human ether-à-go-go-related gene (hERG) potassium channel (Q12809 whole entry, looked up): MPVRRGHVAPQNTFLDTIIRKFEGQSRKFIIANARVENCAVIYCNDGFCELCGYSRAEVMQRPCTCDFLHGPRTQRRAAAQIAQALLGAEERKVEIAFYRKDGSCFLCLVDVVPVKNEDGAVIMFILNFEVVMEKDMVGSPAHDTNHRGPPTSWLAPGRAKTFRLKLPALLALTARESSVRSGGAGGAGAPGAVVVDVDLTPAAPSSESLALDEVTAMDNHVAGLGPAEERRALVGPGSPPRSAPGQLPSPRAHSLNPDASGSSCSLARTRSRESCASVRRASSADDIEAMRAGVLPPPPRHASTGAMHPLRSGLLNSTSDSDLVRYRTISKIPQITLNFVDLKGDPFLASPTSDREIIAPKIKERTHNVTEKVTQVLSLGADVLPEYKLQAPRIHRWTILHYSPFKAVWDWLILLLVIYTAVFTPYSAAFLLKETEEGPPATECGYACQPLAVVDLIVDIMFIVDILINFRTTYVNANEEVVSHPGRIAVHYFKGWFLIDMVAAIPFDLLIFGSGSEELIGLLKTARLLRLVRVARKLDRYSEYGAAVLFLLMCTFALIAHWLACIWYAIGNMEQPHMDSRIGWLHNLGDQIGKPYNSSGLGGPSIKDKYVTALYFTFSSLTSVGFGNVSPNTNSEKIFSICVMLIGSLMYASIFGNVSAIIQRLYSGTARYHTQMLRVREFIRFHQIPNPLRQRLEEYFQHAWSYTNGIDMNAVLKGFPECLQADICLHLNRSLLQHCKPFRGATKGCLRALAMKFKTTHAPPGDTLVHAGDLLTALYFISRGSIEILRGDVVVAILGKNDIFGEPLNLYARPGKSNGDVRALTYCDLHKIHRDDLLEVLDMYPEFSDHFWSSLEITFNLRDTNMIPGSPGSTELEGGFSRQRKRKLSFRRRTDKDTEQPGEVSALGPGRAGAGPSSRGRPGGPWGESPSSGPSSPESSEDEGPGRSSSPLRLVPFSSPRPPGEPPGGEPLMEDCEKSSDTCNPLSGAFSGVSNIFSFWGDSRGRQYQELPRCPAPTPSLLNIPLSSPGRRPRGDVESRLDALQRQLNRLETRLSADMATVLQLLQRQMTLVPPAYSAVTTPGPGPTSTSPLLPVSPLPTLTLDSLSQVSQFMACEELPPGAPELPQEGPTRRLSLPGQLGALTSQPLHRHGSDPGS

| SMILES | hERG current change (%, negative = inhibition) at 1uM [%] |
| --- | --- |
| CCCCn1c(O)c(C(C)=NCCCn2ccnc2)c(=O)[nH]c1=O | 5.81 |
| COc1ccc(NC(=O)COC(=O)Cc2cccs2)cc1OC | -2.26 |
| Cc1ccccc1CC(=O)NCC1CCCCC1 | 10.8 |
| COc1ccccc1CNC(=O)C1CCC(CNc2c(N3CCOCC3)c(=O)c2=O)CC1 (stereo not shown) | 12.7 |
| CCc1ccc(NC(=O)c2cnc(N3CCN(c4ccccn4)CC3)c3ccccc23)cc1 | 12.5 |
| CN(C)Cc1c(O)ccc2c(=O)c(-c3ccccc3Cl)c(C(F)(F)F)oc12 | 8.65 |
| Cn1c(SCC(=O)Nc2ccc(Br)cc2)nc(O)cc1=O | 7.3 |
| C1CCN(c2nc3nonc3nc2NCC2CCOCC2)CC1 | 10.3 |
| N#Cc1ccc2c(c1)nc1ccccn12 | 2.75 |
| CCCC(C)C(=O)Nc1ccc(S(=O)(=O)Nc2nccc(C)n2)cc1 (stereo not shown) | 10.5 |
| O=S1(=O)CCN2C(c3cccc4ccccc34)=CSC2=N1 | 5.62 |
| O=S1(=O)CCC(NC(=S)Nc2ccc(Cl)cc2)C1 (stereo not shown) | 3.6 |
| O=C(Nc1nc(-c2ccccc2)ns1)c1ccncc1 | 7.82 |
| C/C(=N\NC(=O)C1=NNC(=O)C1C)c1cccs1 (stereo not shown) | 10.4 |
| O=C(Nc1ccccc1)C1CCN(C(=O)c2ccccc2)CC1 | 10.7 |
| O=C(CCNS(=O)(=O)c1ccccc1)OCC(=O)c1ccc(F)cc1 | 6.49 |
| Cc1ccc2cc(CCNC(=O)c3cccs3)c(=O)[nH]c2c1 | 2.23 |
| O=C(Cc1cccs1)NNC(=O)C12CC3CC(CC(C3)C1)C2 | 11.7 |
| CCc1ccc(CCC(=O)Nc2ccc(Cl)cc2)o1 | 10.3 |
| CCOC(=O)C1(CC2CCCCO2)CCN(C(=O)Nc2cccc(SC)c2)CC1 (stereo not shown) | 11.5 |
| Cc1ccc(N2C(=O)C3C(C2=O)N2CCCN2C3c2ccccc2)cc1C (stereo not shown) | 10.5 |
| CCOC(=O)c1nn(-c2ccccc2C)c2nc(-c3ccc(Cl)cc3)c(C#N)c(=O)n12 | 9.23 |
| CC1=NC(=O)C(N=Nc2ccccc2)N1c1ccccc1 (stereo not shown) | -6.61 |

| SMILES | hERG current change (%, negative = inhibition) at 1uM [%] |
| --- | --- |
| COc1ccc(NCC(=O)N/N=C(\C)c2cc3ccccc3o2)cc1 | 9.5 |
| CCOC(=O)N1CCN(C(=O)CN(c2ccccc2)S(C)(=O)=O)CC1 | 21.9 |
| CSc1cccc(NC(=O)C(=O)NCc2ccccc2)c1 | 0.554 |
| O=C(CNCc1ccc(Cl)cc1)NCc1ccco1.O=C(O)C(=O)O | 3.08 |
| COc1ccc(NC(=O)c2cccs2)cc1OC | 8.75 |
| Clc1ccc(Sc2oc(/C=N/n3cnnc3)cc2Br)cc1 | 4.18 |
| COc1ccc(OCC(=O)Nc2nc3ccccc3[nH]2)cc1 | 3.55 |
| CC(=Nc1ccc2c(c1)CCC2)c1c(O)n(C2CCCCC2)c(=O)[nH]c1=O | 8.82 |
| COc1ccc(CNC(=O)c2ccc(N3CCC4(CC3)CC(c3ccc(Cl)cc3)=NO4)c(NC(=O)c3ccccc3)c2)cc1 | -1.44 |
| O=C1NC(=O)N(CCc2ccc(F)cc2)C(=O)/C1=C/C=C/c1ccccc1 | 8.13 |
| N/C(=N\O)c1ccc([N+](=O)[O-])s1 | 11.4 |
| O=C(CSc1ncn[nH]1)Nc1ccccc1Sc1ccc(Cl)cc1 | -7.69 |
| O=c1c2ccc([N+](=O)[O-])cc2ncn1CCOc1ccccc1 | 4.81 |
| CC1(C)CC(=O)C2=C(C1)OC(N)=C(C#N)C2c1ccccc1 (stereo not shown) | -6.74 |
| CC1Cc2ccccc2N1S(=O)(=O)c1cccc(C(=O)NC2CC2)c1 (stereo not shown) | 1.2 |
| O=[N+]([O-])c1cccc(CSc2cccc[n+]2[O-])c1 | -3.74 |
| Cc1ccc(NC(=O)N/C=C/c2ccco2)cc1 | 1.58 |
| COc1ccc(S(=O)(=O)N(C)CC(=O)NCCC2=CCCCC2)cc1OC | -10.2 |
| COc1ccc(CCNC(=O)c2nc(-c3cccs3)no2)cc1OC | 7.6 |
| O=C(Nc1ccccc1)N(C1=NCCCCS1)c1ccccc1 | 12.7 |
| CC(=O)N1CCN(c2ccc([N+](=O)[O-])cc2C=C2C(=O)NC(=O)NC2=O)CC1 | -16.3 |
| O=C(CSc1nnc(-c2ccc3c(c2)OCO3)n1-c1ccccc1)c1ccccc1 | 3.9 |
| O=C(NC1CCS(=O)(=O)C1)c1ccc(Br)o1 (stereo not shown) | 11.2 |

| SMILES | hERG current change (%, negative = inhibition) at 1uM [%] |
| --- | --- |
| O=C(Nc1ccccn1)c1ccc(CN(c2ccccc2)S(=O)(=O)c2ccccc2)cc1 | 13 |
| COc1ccc(C(=O)COC(=O)COc2cccc3c2OC(C)(C)C3)c(OC)c1 | 13 |
| O=C1C=C(c2ccc(-c3ccccc3)cc2)C[C@@H](c2ccc(F)cc2)C1 | 6.09 |
| Cc1ccc(NCc2nnc(SCC(=O)N3CCCc4ccccc43)o2)c(C)c1 | 16.3 |
| CCOC(=O)C1C(c2cccc(Cl)c2Cl)NC(=O)NC1(O)C(F)(F)F (stereo not shown) | 3.03 |
| CCC(=O)c1ccc(OCC(=O)OCC(=O)NC2CCCCCC2)cc1 | 16.8 |
| CCC(C)NC(=O)CCc1c(C)nc2c(c(C)nn2-c2ccccc2)c1C (stereo not shown) | 14 |
| O=C1CSC(=S)N1/N=C/c1c(F)cccc1F | 13.7 |
| Cc1cc(C)nc(NC(=O)CSc2nc3ccccc3o2)n1 | -1.5 |
| CCOC(=O)c1ccccc1NC(=O)C1CC(=O)N(C2CCCCC2)C1 (stereo not shown) | -1.79 |
| CCCCOCC1CN(c2ccccc2)C(=O)CS1 (stereo not shown) | 13.7 |
| CCn1c(COc2cccc(C)c2C)nnc1SCC(=O)Nc1cc(C)on1 | 24.6 |
| N#Cc1c(N2CCCCC2)nc(N)c2c(N)nc3c(c12)CC(c1ccccc1)O3 (stereo not shown) | 16.2 |
| Cc1ccc(OC(=O)CCC(=O)Nc2ccc(S(=O)(=O)Nc3cc(C)on3)cc2)cc1 | 7.53 |
| Cc1cc(C)c(NC(=O)CS(=O)CC(=O)Nc2ccc(-n3cnnn3)c(C)c2)c(C)c1 (stereo not shown) | 23.9 |
| COc1ccc(CCNC(=S)NC(=O)c2cc(OC)c(OC)c(OC)c2)cc1OC | 11.1 |
| CCOc1ccc(N(CC(=O)NC(C)(C)C)S(=O)(=O)c2c(C)noc2C)cc1 | 6.81 |
| O=C(O)c1cc(NS(=O)(=O)c2ccc(NC3CCCCC3)c([N+](=O)[O-])c2)cc(C(=O)O)c1 | 12.3 |
| CC1N(C)c2cc(NC(=O)c3ccco3)c(P(=O)(Nc3ccc([N+](=O)[O-])cc3)N3CCOCC3)cc2C1(C)C (stereo not shown) | -11.5 |
| Cc1cc(=O)[nH]c(N2CCN(C(=O)c3ccco3)CC2)n1 | 9.05 |
| CCCn1c(CN2CCN(C(=O)c3ccco3)CC2)nc2c1c(=O)n(C)c(=O)n2C | 0.342 |
| CCN(CC)C(=O)C1CCN(Cc2ccc(Br)cc2)CC1.O=C(O)C(=O)O | -16.2 |
| Cc1ccc(C)c(NC(=O)CSc2nc(=O)n(CCN3CCOCC3)c3c2CCCC3)c1 | 4.3 |

| SMILES | hERG current change (%, negative = inhibition) at 1uM [%] |
| --- | --- |
| CC1=C(C(=O)OCC2CCCO2)C(c2ccc(C)cc2)C2=C(CCCC2=O)N1 (stereo not shown) | 8.12 |
| Cc1ccc(Nc2nc3ccccc3o2)cc1F | 15.4 |
| Cl.c1ccc(Nc2c3c(nc4ccccc24)CCC3)cc1 | -33.1 |
| Cc1c(Cl)cccc1NC(=O)NN1CCN(C)CC1 | -0.476 |
| OC(CN1CCOCC1)c1ccc(F)cc1 (stereo not shown) | 14.8 |
| Cc1cc(C)cc(-n2cnc3cc(C(=O)O)ccc32)c1 | 10.1 |
| COc1ccccc1N1CCN(C(=O)c2cc(=O)c3cc(C)ccc3o2)CC1 | -8.99 |
| c1cncc(C2CCCCN2Cc2ccc3c(c2)OCO3)c1 (stereo not shown) | 10.9 |
| COc1ccc(NC(=O)C(=S)N2CCCC2)cc1 | 11.3 |
| CCCn1nnnc1NC(=O)c1cccs1 | 18.5 |
| O=S(=O)(Cc1ccc(Cl)cc1)c1ccccc1-c1nnc(-c2ccccc2)o1 | 13.4 |
| Oc1ccc(-c2nc3ccccc3s2)cc1 | 10.4 |
| O=C(NC1CCCC1)c1cccc(Cl)c1 | 9.48 |
| O=[N+]([O-])c1ccc(OCCCn2cncn2)cc1 | 3.18 |
| Cc1csc(-c2cnn(-c3ccccc3)c2NC(=O)c2ccccc2)n1 | 11.4 |
| O=C(NCC(c1ccco1)N1CCCC1)c1cccc(NS(=O)(=O)c2ccccc2)c1 (stereo not shown) | 2.07 |
| C/C(=N\NC(=O)c1c[nH]c2ccccc12)c1ccc(C)s1 | 0.576 |
| O=C(O)C1CCC(CNCc2ccccc2Cl)CC1 (stereo not shown) | 1.77 |
| COc1ccc(NC(=O)Cn2nnc(-c3ccccc3NC(=O)C3CC3)n2)cc1 | 3.7 |
| COC(=O)C1=C(C)NC(C)=C(C(=O)OC)C1C(=O)OCC(=O)N1c2ccccc2CC1C (stereo not shown) | 8.89 |
| CCCc1cc(C(=O)Nc2cccnc2)no1 | 9.6 |
| CCN1CCc2c(sc(NC(=O)COc3ccccc3)c2C(=O)OC)C1.Cl | -22.2 |
